The other results are listed elsewhere or left out. Most values come without repeats; read them as rough.
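Also: cell number obtained by counting DAPI-stained nuclei in high-throughput microscope images with image analysis software, screen run in 1,536-well plates.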

This assay concerns WM451Lu. As to the kind of experiment: cell count relative to DMSO control; melanoma cells; higher = more viable cells. The note with it: library dose: low library concentration; 72 h.
On to `CCc1ccc(CCOc2ccc(CC3SC(=O)NC3=O)cc2)nc1` (centres undefined) [pioglitazone] + CCCCCCCCCCCC1=C(O)C(=O)C=C(O)C1=O [Embelin] (first compound 2 µM, partner dose 1.2 µM), for which the cell count came to 118%. In the case of `COc1cc2c(Oc3ccc4[nH]c(C)cc4c3F)ncnc2cc1OCCCN1CCCC1` [cediranib] + CCCCCCCCCCCC1=C(O)C(=O)C=C(O)C1=O [Embelin] (first compound 0.4 µM, partner dose 1.2 µM) it was 112%; in that of `CC(C)(C)c1cnc(CSc2cnc(NC(=O)C3CCNCC3)s2)o1` + Cc1cc([N+](=O)[O-])ccc1NS(=O)(=O)c1cc(Cl)ccc1Cl [FH535] (first compound 0.01 µM, partner dose 1 µM), 100%. Then `CC(C)(C)c1cnc(CSc2cnc(NC(=O)C3CCNCC3)s2)o1` + N#Cc1c(O)c2c(-c3ccc(-c4ccccc4O)cc3)csc2[nH]c1=O [A769662] (first compound 0.01 µM, partner dose 2 µM), with 108%.
